Among the data in PubChem BioAssay AID488969 (Vanderbilt High Throughput Screening Facility, 2010) are z-score values, retold here.

Structures are written as SMILES. In all, about 110,000 compounds were measured (“z-score”: median about -0.1, highest 2% from about 2 on). This is one part of the list.

The assay has as its target Metabotropic glutamate receptor 8 (Rattus norvegicus) (UniProt P70579). The assay can be described thus: rat mGluR8 modulators via GIRK flux, primary screen, cell-based, thallium flux, HTS (AID 488969). The following applies: HEK293 rat mGluR8, GIRK (G protein-gated inwardly rectifying potassium channel) thallium flux, FluoZin2; at 10 µM; stronger effect = higher value; submaximal glutamate (EC20) added with thallium.
UniProt P70579, sequence (P70579 whole entry, looked up): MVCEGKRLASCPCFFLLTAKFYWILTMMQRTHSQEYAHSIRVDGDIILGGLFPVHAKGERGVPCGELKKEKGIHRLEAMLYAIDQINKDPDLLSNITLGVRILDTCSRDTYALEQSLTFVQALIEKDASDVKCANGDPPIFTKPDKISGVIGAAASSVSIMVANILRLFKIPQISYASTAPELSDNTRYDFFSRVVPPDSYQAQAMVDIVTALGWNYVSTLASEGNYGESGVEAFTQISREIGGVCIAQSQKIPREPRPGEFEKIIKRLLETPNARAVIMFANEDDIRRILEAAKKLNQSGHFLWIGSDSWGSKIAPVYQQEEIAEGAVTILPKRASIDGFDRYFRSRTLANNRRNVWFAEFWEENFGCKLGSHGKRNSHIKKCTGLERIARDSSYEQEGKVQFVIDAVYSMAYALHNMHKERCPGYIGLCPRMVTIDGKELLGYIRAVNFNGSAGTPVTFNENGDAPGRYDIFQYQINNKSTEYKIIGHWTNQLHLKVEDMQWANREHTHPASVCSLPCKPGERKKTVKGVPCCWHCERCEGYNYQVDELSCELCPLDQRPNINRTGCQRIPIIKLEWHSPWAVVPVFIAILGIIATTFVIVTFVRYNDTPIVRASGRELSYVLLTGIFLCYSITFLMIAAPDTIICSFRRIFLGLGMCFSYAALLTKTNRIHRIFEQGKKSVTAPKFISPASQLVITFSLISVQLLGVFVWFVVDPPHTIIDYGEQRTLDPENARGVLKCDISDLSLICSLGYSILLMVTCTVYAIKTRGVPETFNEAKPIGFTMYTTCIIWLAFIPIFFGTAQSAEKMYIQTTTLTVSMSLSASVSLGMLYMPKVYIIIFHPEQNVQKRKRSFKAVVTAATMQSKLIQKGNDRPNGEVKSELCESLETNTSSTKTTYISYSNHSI
`CCOC(=O)C1C(=O)NC(N2CCN(c3ccccc3)CC2)=NC1c1ccccc1` (stereo not given) gave a z-score of -0.388.
As for `CC1C/C(=N/Nc2ccc([N+](=O)[O-])cc2[N+](=O)[O-])CC(C)(C)C1` (stereo not given), the figure is -0.416.
The molecule `Cc1cc2c3c(c1)C(C)(c1ccccc1)CC(C)(C)N3C(=O)C21C(C#N)=C(N)OC2=C1C(=O)CC(C)(C)C2` (stereo not given) registered a z-score of 0.022.
As for `Cn1nc([N+](=O)[O-])nc1Sc1nnc(-c2ccccc2)o1`, the figure is -0.0165; as for `NC(=O)CN1CCOCCOCCOCCOCCOCC1`, 0.482; as for `COc1ccc(/C=C\c2onc(C)c2S(=O)(=O)N2CCC(C(=O)NCCC(C)C)CC2)cc1`, 0.851.
As for `COc1ccccc1/C=C/C(=O)OCC(=O)Nc1cc(C(F)(F)F)ccc1N1CCOCC1`, the figure is -0.341; as for `Cc1ccc(C(C)C)c(OCCN(C)C)c1`, 0.47.
`Cc1cc(C(F)F)nn1CC(=O)N1CCSCC1` showed a z-score of 0.0304.
Under `CC(=O)/C(=N/Nc1ccccc1Cl)Sc1nnc(C(O)c2ccccc2)n1-c1ccccc1` (stereo not given) stands 0.00854.
As for `CCC(C)/C(C)=N/NC(=O)c1ccc(CSc2nc3ccccc3s2)cc1` (stereo not given), the figure is -0.291; as for `Cc1nn(Cc2cccc(C(=O)NC3CCCCC3)c2)c(C)c1Cl`, -1.03.
For `Cc1ccc(NC(=O)C2C3/C=C\CCCCC32)cc1C` (stereo not given), the z-score was found to be 0.153.
Under `O=C(Nc1nnc(-c2ccccc2)s1)c1cccc(S(=O)(=O)N2CCOCC2)c1` stands -0.0335; under `CC(C)CN1C(=O)c2ccc(C(=O)NCc3ccc4c(c3)OCO4)cc2C1=O`, 0.0583; under `CCc1ccc(NC(=O)C(=O)c2cn(CC(=O)N3CCCCC3)c3ccccc23)cc1`, 0.121.
On to `CSc1ncc2c(n1)-c1cc(C)ccc1SC2`, for which the z-score is -0.152.
`Cc1cc(Cl)ccc1OCCCC(=O)N/N=C/c1cccc([N+](=O)[O-])c1` displayed a z-score of -0.0451.
Under `CCn1nnc(NC(=O)c2cc(Cl)c(OC)c(Cl)c2)n1` stands 0.078; under `Cc1ccccc1NC(=O)/C(=C/c1cccs1)NC(=O)c1ccco1`, -0.146.
On to `CN(C)S(=O)(=O)c1ccc(S(=O)(=O)Nc2ccc3c(c2)oc2ccccc23)cc1`, for which the z-score was determined as 0.0572.
Take `Cc1ccc(-c2nnc(-c3ccccc3S(=O)(=O)Cc3ccc(Cl)cc3)o2)cc1`: the z-score stood at 0.0583.
As for `CC(C)/C=C1\CCCCC1N(C)C(=O)NC(C)C` (stereo not given), the figure is -0.373; as for `CC(=O)C1=C(C)Nc2cc(C(F)(F)F)ccc2S1`, -0.36.
As for `O=C(Cn1ccc2ccccc2c1=O)Nc1ccc2c(c1)OCO2`, the figure is 0.362; as for `O=C1N=C(c2ccccc2)S/C1=C\c1cccs1`, 2.92.
As for `Cc1cc(C)nc(Nc2n[nH]c(COc3ccc4ccccc4c3)n2)n1`, the figure is 0.0803; as for `CC(CN1CCOCC1)OC(=O)C(C)(c1ccccc1)c1ccccc1` (stereo not given), 0.383.
The molecule `Cn1ccnc1SCC(=O)Nc1sccc1C#N` returned a z-score of -0.121.
As for `NC1=NC(=O)/C(=C/c2cccs2)S1`, the figure is -0.848; as for `COc1ccc(Cc2c[nH]c(=O)[nH]c2=O)cc1`, -0.218.
The molecule `O=C(c1cccn(Cc2cccc(Cl)c2)c1=O)N1CCOCC1` showed a z-score of 0.0735.
`CC(C)NC(=O)CN1C(=O)C(=O)c2ccccc21`: the z-score was 0.102.
As for `Cc1ccc(/C=C/C(=O)c2nc3ccccc3[nH]2)cc1`, the figure is -0.981; as for `Cc1cccc(N(Cc2cc3ccccc3[nH]c2=O)S(=O)(=O)c2ccccc2)c1`, 0.214; as for `O=C(c1ccccc1)c1nc[nH]c1C(=O)Nc1ccccn1`, 0.0319.
As for `CCN(C(=O)COC(=O)c1cnc(C)cn1)C1CCCCC1`, the figure is 0.0901.
As for `Cc1ccc(S(=O)(=O)N2CCN(CC(=O)N/N=C/c3cc([N+](=O)[O-])ccc3Cl)CC2)cc1`, the figure is -0.567.
`CN(CC(CC(=O)O)c1ccccc1)S(=O)(=O)c1ccc(Br)cc1` (stereo not given) came in with a z-score of 0.157.
As for `CCCCC(=O)Nc1ccc(C(=O)Nc2nc(CC(=O)OCC)cs2)cc1`, the figure is -0.728; as for `OCC1CCCN1C(=S)Nc1ccccc1` (stereo not given), -0.00603; as for `Cc1ccccc1OCc1nc(-c2ccccc2)no1`, -0.372.
As for `O=C(NCc1ccccc1)C1C2C=CC3(CN(Cc4cccnc4)C(=O)C13)O2` (stereo not given), the figure is -0.421; as for `Cc1cccc(NC(=S)N=Nc2c(O)n(CN3CCOCC3)c3ccccc23)c1C`, 2.19.
Under `Oc1ccc(C=Nc2ccccc2-c2nc3ccccc3[nH]2)cc1` stands -0.054.
Regarding `O=C(c1ccc(CN2CCOCC2)cc1)N1CCN(c2cccc(Cl)c2)CC1`, the z-score was -0.224.
Under `O=C(COc1ccccc1Cl)N1CCN(c2ccc(F)cc2)CC1` stands 0.0431; under `Cc1cccc(C)c1NC(=O)NN(C(=O)c1ccccc1)C(C)(C)C`, -0.187; under `O=S(=O)(c1ccccc1F)N1CCN(Cc2nc3ccccc3[nH]2)CC1`, -0.29.
Under `CS(=O)(=O)N1CCc2cc(C(=O)N3CCOCC3)ccc21` stands 0.263; under `OC(CNCCC1C=Nc2ccccc21)Cn1c2ccc(Cl)cc2c2cc(Cl)ccc21` (stereo not given), 0.025.
Turning to `O=C(c1ccco1)N1N=C(c2cccs2)CC1c1ccc(F)cc1` (stereo not given), the z-score is -1.59.
`COc1ccc(Nc2nc(Cl)nc(NCc3ccco3)n2)cc1` registered a z-score of -0.0731.
As for `Cc1cc(C(=O)N2CCN(Cc3ccccc3)CC2)on1`, the figure is -0.49.
`CN(C)c1nc(SCc2ccccc2)nc(N2CCOCC2)n1` gave a z-score of -0.165.
On to `Fc1ccc(-c2n[nH]c(=S)n2CC2CCCO2)cc1` (stereo not given), for which the z-score was -0.283.
In the case of `CCc1[nH]nc2c1C(Cc1ccccc1)C(C#N)=C(N)O2` (stereo not given), the z-score is 0.432.
Take `COC(=O)c1cc(-c2c(C)nn(-c3ccccc3)c2C)n[nH]1`: the z-score was -0.584.
In turn, `COc1ccc(OC)c(NC(=O)CSCc2cnn(-c3ccccc3)c2-n2cccc2)c1` returned a z-score of 0.126.
As for `Cc1cc([N+](=O)[O-])nn1CCCC(=O)NC(C)c1ccccc1` (stereo not given), the figure is -0.317.
As for `Cn1c(CN2CCN(C(=O)c3ccccc3Cl)CC2)nc2cc([N+](=O)[O-])ccc21`, the z-score amounted to 0.11.
As for `CC1=CC(C)(C)N2C(=O)C3(C(C#N)=C(N)OC4=C3C(=O)CC(C)(C)C4)c3cccc1c32` (stereo not given), the figure is -0.0955; as for `Nc1cc(=O)[nH]c(SCc2ccc(Cl)cc2)n1`, 0.285.
Under `COc1ccc(C2NC(C(=O)O)CS2)cc1COCC(F)(F)F` (stereo not given) stands -0.34; under `Cc1cc(C(=O)COC(=O)c2ccc(O)cc2)c(C)n1CC1COc2ccccc2O1` (stereo not given), -0.372; under `CC(=O)Nc1ccc(NC(=O)CNS(=O)(=O)c2ccc(C)cc2)cc1`, 0.392.
For the molecule `NS(=O)(=O)c1cccc(NC(=O)Cn2cnc3ccccc3c2=O)c1`, the z-score was -0.339.
As for `Cc1ccc2cc(/C=C3\N=C(c4ccccc4)OC3=O)c(N3CCOCC3)nc2c1`, the figure is -0.314.
Under `Cc1cc(C)cc(-n2c(SCC(=O)Nc3cccc(S(=O)(=O)NC4=NCCCCC4)c3)nc3ccccc3c2=O)c1` stands -0.139; under `c1ccc(-n2nnnc2SCc2cn3cccnc3n2)cc1`, 0.758.
In the case of `Cn1c2ccccc2c(=O)n2c(=O)c3ccccc3cc12`, the z-score is -0.405.
As for `O=C(C[n+]1cc(-c2ccccc2)n2c1CCCCC2)c1ccc(Cl)cc1`, the figure is 0.0753; as for `COC(=O)CSc1nc(-c2ccc(F)cc2)cc(C(F)(F)F)n1`, 0.236.
Under `Nc1ccc(-c2cc(-c3cccc(N)c3)nc(-c3ccccc3)n2)cc1` stands -0.0612.
Regarding `Cc1ccc(S(=O)(=O)N(C)Cc2nc(-c3ccncc3)no2)cc1`, the z-score came out at 0.177.
As for `Cn1c(=O)c2c(nc(NCc3ccccc3)n2CCCc2ccccc2)n(C)c1=O`, the figure is -0.871; as for `O=C1C2CC=CCC2C(=O)N1c1ccc(OCC(O)Cn2nnc3ccccc32)cc1` (stereo not given), -0.224.
Regarding `CCC(=O)N1CCc2cc(S(=O)(=O)NCCCOC)ccc21`, the z-score is -0.216.
As for `N#Cc1ccc(Nc2ccccc2)c(N)c1`, the figure is -0.0201; as for `CC(=O)N(C)c1nc(-c2ccc(Cl)cc2)cs1`, -0.168.
Under `N/C(=N\OC(=O)CSc1ccccc1)c1cccc([N+](=O)[O-])c1` stands -0.477; under `COc1ccc(/C=C/C(=O)Nc2c(C)nn(C)c2C)cc1COc1ccc(Cl)cc1Br`, -0.0447.
Under `O=C(CC(c1ccccc1)c1ccccc1)Nc1ncn[nH]1` stands 0.56.
In turn, `O=C(NCCc1ccccc1)c1cc2sccc2n1Cc1ccccc1` displayed a z-score of -0.126.
As for `CCOC(=O)c1c(NC(=S)Nc2ccccc2C)sc2c1CCC2`, the figure is 0.265; as for `COc1ccc(CCN(Cc2cccs2)S(=O)(=O)c2ccc(S(=O)(=O)N3CCCCCC3)cc2)cc1OC`, 0.158.
Under `O=C1c2ccccc2C(Nc2ccc(Cl)cn2)N1c1ccccn1` (stereo not given) stands -2.07; under `COc1cc(CCC(=O)OCC(=O)Nc2ccccc2C(C)C)cc(OC)c1OC`, 0.11; under `COc1ccccc1N(CN1CCCC1=O)C(=O)c1c(F)cccc1F`, -0.429.
Under `CCCN(CCC)S(=O)(=O)c1ccc(C(=O)NCc2ccc3c(c2)OCO3)cc1` stands 0.635; under `O=C(Cn1[nH]c(=O)c2ccccc2c1=O)OCC(=O)N(Cc1ccccc1)Cc1ccccc1`, -0.414.
In turn, `COc1ccc(/C=C\C(=O)Oc2cccc(/C=N/NC(=O)Cc3ccc(OC)c(OC)c3)c2)cc1` gave a z-score of 0.177.
Under `CCOc1ccc(Br)cc1S(=O)(=O)NCCN(C)C` stands -0.463; under `CCN(C(=S)Nc1ccc(Oc2ccccc2)cc1)c1ccccc1`, 0.235.
Under `COc1ccc(-c2cc(=O)oc3c(C)c(O)c(CN(C)C)cc23)cc1` stands -0.711.
Under `Cc1c(C(=O)N2CCCC2)nnn1-c1nonc1N` stands -0.219; under `O=C(C1CCN(c2nnc(-n3cccc3)s2)CC1)N1CCc2ccccc2C1`, -0.67.
Regarding `O=C(Nc1ccc(Cl)cc1C(=O)Nc1ccc(Br)cn1)c1ccco1`, the z-score was -0.323.
As for `Clc1ccc(CN2CCC(Cc3ccccc3)CC2)cc1`, the figure is -0.189.
As for `Cc1cccc2nc(CSc3nnnn3-c3ccccc3)cn12`, the figure is -0.527; as for `CN(C)S(=O)(=O)c1cccc(-c2nnc(SCc3cc(Cl)cc4c3OCOC4)n2N)c1`, -0.286.
As for `COc1ccc(C(=O)CCc2nc3ccccc3s2)cc1`, the figure is -0.0445; as for `CCOC(=O)CCP(=O)(O)C(O)c1ccccc1` (stereo not given), -0.101; as for `O=C(CN1CCOCC1)Nc1cc(Cl)ccc1Cl`, -0.344.
In turn, `CC(C)(C)c1ccc(OCCn2ccccc2=O)cc1` registered a z-score of 1.01.
As for `Cc1nn(C(C)C(=O)N2CCOCC2)c(C)c1[N+](=O)[O-]` (stereo not given), the figure is 0.00235; as for `COc1cc(N)cc(NC(=O)c2ccncc2)c1`, -0.0988; as for `CCC12C(=O)C(CC)(C(c3ccccc3)=C1c1ccccc1)[C@@H]1C(=O)N(c3ccc(C)cc3)C(=O)C12` (stereo not given in full), 0.068.
`CCOCC(=O)Nc1nc2ccc(S(C)(=O)=O)cc2s1`: the z-score worked out at 0.208.
Under `O=C(CN1CCN(c2ccccc2)CC1)Nc1ccc(Oc2ccccc2)cc1` stands 0.705.
